# The campaign covered roughly 310,000 compounds. About 2,200 (0.71%) showed an effect of 50% or more. The effect is printed as a negative number. Some of the results follow.
# Target: human ether-à-go-go-related gene (hERG) potassium channel (human, UniProt Q12809)
# Experiment: primary screen, population patch clamp on CHO cells stably expressing hERG
# human ether-à-go-go-related gene (hERG) potassium channel, sequence (Q12809 whole entry, looked up): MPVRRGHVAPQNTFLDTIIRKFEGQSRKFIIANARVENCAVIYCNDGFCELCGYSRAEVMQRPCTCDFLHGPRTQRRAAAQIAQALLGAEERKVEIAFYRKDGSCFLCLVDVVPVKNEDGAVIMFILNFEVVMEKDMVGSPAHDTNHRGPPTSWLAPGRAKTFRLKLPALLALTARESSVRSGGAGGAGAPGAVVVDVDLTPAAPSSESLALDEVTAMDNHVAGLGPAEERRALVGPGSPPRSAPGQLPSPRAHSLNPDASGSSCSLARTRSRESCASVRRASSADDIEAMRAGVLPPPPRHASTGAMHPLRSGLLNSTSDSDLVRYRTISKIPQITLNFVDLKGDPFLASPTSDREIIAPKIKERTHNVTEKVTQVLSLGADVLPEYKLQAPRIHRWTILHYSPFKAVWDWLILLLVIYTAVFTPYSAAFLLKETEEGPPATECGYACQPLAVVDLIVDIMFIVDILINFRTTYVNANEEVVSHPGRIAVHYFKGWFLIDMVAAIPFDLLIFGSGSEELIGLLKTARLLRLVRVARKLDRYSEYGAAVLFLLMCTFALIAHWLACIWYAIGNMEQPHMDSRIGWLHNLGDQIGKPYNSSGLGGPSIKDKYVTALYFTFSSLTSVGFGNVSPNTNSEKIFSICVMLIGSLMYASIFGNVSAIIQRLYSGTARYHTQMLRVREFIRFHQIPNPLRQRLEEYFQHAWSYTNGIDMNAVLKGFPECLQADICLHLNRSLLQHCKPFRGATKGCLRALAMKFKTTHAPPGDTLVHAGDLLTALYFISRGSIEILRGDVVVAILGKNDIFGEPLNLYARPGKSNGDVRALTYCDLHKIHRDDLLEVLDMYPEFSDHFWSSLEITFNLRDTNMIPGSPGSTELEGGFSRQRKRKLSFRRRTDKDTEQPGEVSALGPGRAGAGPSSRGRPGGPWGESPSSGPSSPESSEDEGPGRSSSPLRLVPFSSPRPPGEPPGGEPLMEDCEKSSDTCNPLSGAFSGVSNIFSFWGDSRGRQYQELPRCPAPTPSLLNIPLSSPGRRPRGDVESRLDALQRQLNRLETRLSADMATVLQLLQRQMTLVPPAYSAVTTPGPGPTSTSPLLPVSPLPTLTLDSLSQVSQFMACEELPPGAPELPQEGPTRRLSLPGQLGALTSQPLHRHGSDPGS
row,SMILES,"hERG current change (%, negative = inhibition) at 1uM [%]"
1,C=CCNC(=S)N1CCC(C(=O)c2ccc(C)cc2)CC1,1.96
2,COc1ccccc1N1CCN(C2CCCN(C(=O)CCc3cnccn3)C2)CC1 (stereo not drawn),14
3,CN1CCC(=NNC(=O)c2ccc(N(Cc3ccc(Cl)cc3)S(C)(=O)=O)cc2)CC1,-1.1
4,c1ccc(-c2csc3ncnc(NCc4ccccn4)c23)cc1,0.364
5,COCCNC(=O)C(c1ccc(C)o1)N(C(=O)c1snc(C(N)=O)c1N)c1cccc(C)c1 (stereo not drawn),-2.24
6,CN(C)/C=C(/C(=O)c1ccccc1)n1cncn1,14.6
7,COc1ccc(C2CC(=O)Nc3sc(=N)c4c(N)c(C#N)c(N)nc4c32)cc1OC (stereo not drawn),12.9
8,COc1ccc(-n2nc([N+](=O)[O-])c(=NCc3cccnc3)n2O)cc1,7.08
9,CCOC(=O)C(NCc1ccccc1OC)(NC(=O)CC)C(F)(F)F (stereo not drawn),13.7
10,Cc1cc(C)c(S(=O)(=O)C(C)C)c(=O)[nH]1,12.2
11,CCC1(C)CC(c2csc(N)n2)CCO1 (stereo not drawn),-6.74
12,CCOc1ccc(N(CC(=O)N2CCN(Cc3ccccc3)CC2)S(C)(=O)=O)cc1,7.68
13,O=C(COC(=O)c1ccccc1Br)Nc1nnc(-c2ccccc2)o1,0.935
14,O=Cc1c(NCc2cccc(F)c2)c2ccccc2[nH]c1=O,11.8
15,O=S(=O)(NC1=NCCC1)c1ccc(F)cc1,14.8
16,COc1ccccc1NC1=NCCS1,-11.3
17,O=[N+]([O-])c1ccc(OCCO)nc1,12.3
18,Cc1cccc(NC(=O)CSCC(=O)Nc2cc(Cl)ccc2N2CCN(C)CC2)c1,-25.9
19,Cc1cc(C)nc(SCC(=O)c2ccc(F)c(C)c2)n1,10.9
20,Cc1cc(C)nc(/N=C(\N)Nc2ccc(SC(F)F)cc2)n1,-52.9
21,O=C(NN1C(=O)/C(=C/c2cccs2)SC1=S)c1cccnc1,11.6
22,Cc1c(N2C(=O)C(=O)/C(=C(/O)c3ccccc3)C2c2ccc(F)cc2)c(=O)n(-c2ccccc2)n1C (stereo not drawn),8.19
23,C/C(=N\c1nc2ccccc2n1C)c1cc(Cl)ccc1O,3.41

row,SMILES,"hERG current change (%, negative = inhibition) at 1uM [%]"
1,C=CCN1C(=O)CSC1=Nc1ccc(NC(C)=O)cc1,2.58
2,O=C(NC(=S)Nc1ncccn1)c1ccccc1Br,12.3
3,O=C(CCc1ccccc1)NC(=S)Nc1cccc(C(=O)O)c1,1.62
4,CC(C)(C)c1ccc(S(=O)(=O)O/N=C2/CCCCC2c2ccc([N+](=O)[O-])cc2[N+](=O)[O-])cc1 (stereo not drawn),11
5,CCc1nnc(NC(=O)[C@@H]2CCCN2S(=O)(=O)c2ccc3c(c2)OCCO3)s1,10.2
6,CC(NS(=O)(=O)c1ccccc1)C(c1cccs1)N1CCOCC1 (stereo not drawn),6.92
7,CCn1c(SCC(=O)Nc2ccc(OC)c(OC)c2)nnc1-c1ccco1,9.23
8,CCCC(c1nnnn1Cc1ccccc1)N1CCN(c2ccccc2OC)CC1.Cl (stereo not drawn),15.2
9,Cc1[nH]c2ccc(C(=O)NCCCN3CCCCCC3)cc2c1C,4.52
10,Cc1cccc(N2CCN(C(=O)C3CCN(S(=O)(=O)c4cccnc4)CC3)CC2)c1C,-0.987
11,Cn1ccnc1SCC(=O)Nc1ccccc1,-1.32
12,O=C(NCCS(=O)(=O)N1CCN(c2cccc(Cl)c2)CC1)c1ccc2c(c1)OCO2,15.7
13,CCCC12CN3CC(C)(CN(C1)C3c1ccc(OC)cc1)C2=O (stereo not drawn),5.01
14,CCN1CCN(c2nc(C)c3c(n2)CCCC3=O)CC1,14.1
15,Cc1cc(=O)n2nc(-c3ccccc3)sc2n1,5.68
16,COC(=O)c1ccc2c(=O)n(C3CCCCC3)c(SCC#N)nc2c1,17.3
17,Cc1cccc(NC(=O)CN2C(=O)S/C(=C\c3ccc(O)c([N+](=O)[O-])c3)C2=O)c1,12.7
18,CCS(=O)(=O)N1CCC(NC(=O)c2ccco2)CC1,16.6
19,O=C(NCCOc1ccc(F)cc1)C1CCC(=O)N(CCCN2CCCC2=O)C1 (stereo not drawn),14.2
20,CCOC(=O)c1cc2c(ccn2C)n1CC(=O)N(Cc1ccccc1)c1ccccc1,-2.73
21,O=C(NCCOc1ccccc1)c1ccc2n[nH]nc2c1,0.707
22,Cc1nc2cc(C(F)(F)F)ccc2n1C1CCN(Cc2nnnn2Cc2ccc3c(c2)OCO3)CC1,-32.4

# — paper PMC4336329 (PLoS ONE, 2015)
